From the supplement of paper PMC9151546
Single values are uncertain, as repeats are few or missing.

What was measured:
CHO-K1 [1] = experiment: micronucleus frequency (% of nucleated events); higher = more micronuclei (genotoxic)
CHO-K1 [2] = experiment: hypodiploid nuclei frequency (% of nucleated events); higher = more hypodiploid events (aneugenic)
Protocol: (§1)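 Flow-cytometric in vitro micronucleus assay (Litron MicroFlow) in CHO-K1 cells in 96-well plates, 19 concentrations (4.5-200 µM, n=1 per concentration). Without S9, cells were exposed for 24 h and sampled at 48 h. With Aroclor 1254-induced rat liver S9, cells were exposed for 3-4 h and sampled at 27-28 h. Read-outs are %MN and %hypodiploid nuclei relative to nucleated events, and relative survival as the nuclei-to-bead ratio versus the 1% DMSO vehicle control (x100).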

CHO-K1 [3] = experiment: relative survival (nuclei to bead ratio vs DMSO control) (% of vehicle control); higher = more surviving cells
Protocol: as §1
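Wherever hypodiploid nuclei frequency (% of nucleated events) is given: hypodiploid nuclei gated on a flow cytometer with 488 nm excitation after SYTOX Green staining, cultures at 37 °C, positive controls vinblastine without S9 and cyclophosphamide with S9.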
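Wherever micronucleus frequency (% of nucleated events) is given: cells lysed with nuclei stained by SYTOX Green, then micronucleus-gated events counted against nucleated events by flow cytometry with 488 nm excitation.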
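Wherever relative survival (nuclei to bead ratio vs DMSO control) is given: Lysed-cell nuclei stained with SYTOX Green and counted against counting beads by flow cytometry at 488 nm excitation, with vinblastine (no S9) and cyclophosphamide (plus S9) as positive controls.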

Cc1cccc([N+](=O)[O-])c1C [1,2-Dimethyl-3-nitrobenzene]
Details | hypodiploid nuclei frequency, CHO-K1 [2] [%] | micronucleus frequency, CHO-K1 [1] [%] | relative survival, CHO-K1 [3]
concentration: 4.5 (µM), S9 metabolic activation: with S9, exposure time: 3-4 hours | 0.28 | 1.44 | 161
concentration: 4.5 (µM), S9 metabolic activation: without S9, exposure time: 24 hours | 0.56 | 1.92 | 148
concentration: 5.63 (µM), S9 metabolic activation: with S9, exposure time: 3-4 hours | 0.18 | 1.54 | 123
concentration: 5.63 (µM), S9 metabolic activation: without S9, exposure time: 24 hours | 0.64 | 1.36 | 118
concentration: 7.04 (µM), S9 metabolic activation: with S9, exposure time: 3-4 hours | 0.34 | 1.96 | 130
concentration: 7.04 (µM), S9 metabolic activation: without S9, exposure time: 24 hours | 0.6 | 1.68 | 132
concentration: 8.8 (µM), S9 metabolic activation: with S9, exposure time: 3-4 hours | 0.3 | 1.72 | 132
concentration: 8.8 (µM), S9 metabolic activation: without S9, exposure time: 24 hours | 0.72 | 2.44 | 148
concentration: 11 (µM), S9 metabolic activation: with S9, exposure time: 3-4 hours | 0.38 | 2.08 | 138
concentration: 11 (µM), S9 metabolic activation: without S9, exposure time: 24 hours | 0.68 | 1.94 | 116
concentration: 13.7 (µM), S9 metabolic activation: with S9, exposure time: 3-4 hours | 0.46 | 2.52 | 125
concentration: 13.7 (µM), S9 metabolic activation: without S9, exposure time: 24 hours | 0.52 | 1.36 | 140
concentration: 17.2 (µM), S9 metabolic activation: with S9, exposure time: 3-4 hours | 0.28 | 1.48 | 128
concentration: 17.2 (µM), S9 metabolic activation: without S9, exposure time: 24 hours | 0.52 | 1.66 | 134
concentration: 21.5 (µM), S9 metabolic activation: with S9, exposure time: 3-4 hours | 0.18 | 1.14 | 114
concentration: 21.5 (µM), S9 metabolic activation: without S9, exposure time: 24 hours | 0.72 | 1.88 | 122
concentration: 26.8 (µM), S9 metabolic activation: with S9, exposure time: 3-4 hours | 0.12 | 1.38 | 135
concentration: 26.8 (µM), S9 metabolic activation: without S9, exposure time: 24 hours | 0.76 | 2.18 | 119
concentration: 33.6 (µM), S9 metabolic activation: with S9, exposure time: 3-4 hours | 0.32 | 1.5 | 139
concentration: 33.6 (µM), S9 metabolic activation: without S9, exposure time: 24 hours | 0.92 | 2.24 | 166
concentration: 41.9 (µM), S9 metabolic activation: with S9, exposure time: 3-4 hours | 0.34 | 1.58 | 109
concentration: 41.9 (µM), S9 metabolic activation: without S9, exposure time: 24 hours | 0.94 | 1.88 | 151
concentration: 52.4 (µM), S9 metabolic activation: with S9, exposure time: 3-4 hours | 0.28 | 1.72 | 114
concentration: 52.4 (µM), S9 metabolic activation: without S9, exposure time: 24 hours | 1.38 | 2.98 | 121
concentration: 65.5 (µM), S9 metabolic activation: with S9, exposure time: 3-4 hours | 0.24 | 0.78 | 83.4
concentration: 65.5 (µM), S9 metabolic activation: without S9, exposure time: 24 hours | 1 | 2.36 | 135
concentration: 81.9 (µM), S9 metabolic activation: with S9, exposure time: 3-4 hours | 0.22 | 1.32 | 94.2
concentration: 81.9 (µM), S9 metabolic activation: without S9, exposure time: 24 hours | 1.5 | 3.22 | 149
concentration: 102 (µM), S9 metabolic activation: with S9, exposure time: 3-4 hours | 0.14 | 0.86 | 95.4
concentration: 102 (µM), S9 metabolic activation: without S9, exposure time: 24 hours | 1.16 | 2.9 | 146
concentration: 128 (µM), S9 metabolic activation: with S9, exposure time: 3-4 hours | 0.16 | 1.12 | 95.6
concentration: 128 (µM), S9 metabolic activation: without S9, exposure time: 24 hours | 1.1 | 2.74 | 121
concentration: 160 (µM), S9 metabolic activation: with S9, exposure time: 3-4 hours | 0.18 | 1.08 | 103
concentration: 160 (µM), S9 metabolic activation: without S9, exposure time: 24 hours | 1.28 | 3.96 | 120
concentration: 200 (µM), S9 metabolic activation: with S9, exposure time: 3-4 hours | 0.24 | 1.18 | 110
concentration: 200 (µM), S9 metabolic activation: without S9, exposure time: 24 hours | 1.8 | 3.38 | 109
